Source: patent US6706762 (SALK INSTITUTE FOR BIOLOGICAL STUDIES, dated 1998)

Target: T1, mSin3A (UniProt Q60520 1-1274, 35S-methionine label)
T1 construct: also called 35S Methionine labeled mSin3A
T1 sequence (looked up): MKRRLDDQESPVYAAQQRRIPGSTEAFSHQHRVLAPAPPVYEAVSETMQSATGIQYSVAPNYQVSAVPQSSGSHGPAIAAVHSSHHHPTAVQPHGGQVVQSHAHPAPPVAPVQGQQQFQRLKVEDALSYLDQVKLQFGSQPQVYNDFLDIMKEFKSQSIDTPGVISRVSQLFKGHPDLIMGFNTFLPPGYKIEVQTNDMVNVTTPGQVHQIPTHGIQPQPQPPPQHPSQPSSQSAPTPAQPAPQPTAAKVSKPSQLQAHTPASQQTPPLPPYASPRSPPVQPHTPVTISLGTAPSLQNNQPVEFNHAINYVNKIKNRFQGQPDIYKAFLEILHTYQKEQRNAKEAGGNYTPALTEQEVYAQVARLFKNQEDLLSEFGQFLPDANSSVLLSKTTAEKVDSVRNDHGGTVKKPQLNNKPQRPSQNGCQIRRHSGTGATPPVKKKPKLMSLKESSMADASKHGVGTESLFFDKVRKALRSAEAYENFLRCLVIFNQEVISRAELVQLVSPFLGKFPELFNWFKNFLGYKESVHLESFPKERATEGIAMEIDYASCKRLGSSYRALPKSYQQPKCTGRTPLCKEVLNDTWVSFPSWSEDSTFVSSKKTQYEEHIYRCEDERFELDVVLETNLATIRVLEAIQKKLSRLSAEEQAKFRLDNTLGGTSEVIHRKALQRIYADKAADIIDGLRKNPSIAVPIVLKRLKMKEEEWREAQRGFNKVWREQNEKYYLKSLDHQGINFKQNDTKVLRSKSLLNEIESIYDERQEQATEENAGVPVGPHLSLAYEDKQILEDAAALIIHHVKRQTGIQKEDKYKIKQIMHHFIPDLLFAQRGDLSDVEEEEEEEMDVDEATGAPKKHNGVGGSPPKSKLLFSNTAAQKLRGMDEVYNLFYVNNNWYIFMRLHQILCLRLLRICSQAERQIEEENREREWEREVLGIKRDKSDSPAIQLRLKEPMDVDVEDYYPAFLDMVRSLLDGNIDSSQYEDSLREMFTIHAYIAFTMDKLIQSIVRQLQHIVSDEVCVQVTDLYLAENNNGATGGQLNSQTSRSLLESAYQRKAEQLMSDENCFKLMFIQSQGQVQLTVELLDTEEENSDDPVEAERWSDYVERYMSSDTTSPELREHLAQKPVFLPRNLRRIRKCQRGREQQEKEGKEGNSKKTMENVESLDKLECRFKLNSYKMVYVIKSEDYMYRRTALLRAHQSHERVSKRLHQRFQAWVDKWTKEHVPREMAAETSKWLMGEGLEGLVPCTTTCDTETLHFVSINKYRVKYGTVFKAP
Assay: GST pull-down

B1: GST (enzyme)
chain: not shown
notes: Control matrix; also called GST alone; glutathione-S-transferase
binding result: no binding
